# Measured values from PMC6919601, “Identification of Plasmodium dipeptidyl aminopeptidase allosteric inhibitors by high throughput screening” (PLoS ONE, 2019).
# Among all 110,000 compounds or so, about 230 (0.21%) showed an effect of 50% or more. The list shows a part of the results.
# Molecular target: DPAP1 (Plasmodium falciparum, UniProt Q8IIJ9)
# Assay: primary screen, percent inhibition; read by cleavage of a fluorogenic dipeptide substrate; higher = more effect of the substance
# Parameters: species or system P. falciparum D10 trophozoite lysates; single well
# 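Further: 30 min substrate incubation versus DMSO and 10 µM JCP410 controls.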
# DPAP1, sequence (Q8IIJ9 whole entry, looked up): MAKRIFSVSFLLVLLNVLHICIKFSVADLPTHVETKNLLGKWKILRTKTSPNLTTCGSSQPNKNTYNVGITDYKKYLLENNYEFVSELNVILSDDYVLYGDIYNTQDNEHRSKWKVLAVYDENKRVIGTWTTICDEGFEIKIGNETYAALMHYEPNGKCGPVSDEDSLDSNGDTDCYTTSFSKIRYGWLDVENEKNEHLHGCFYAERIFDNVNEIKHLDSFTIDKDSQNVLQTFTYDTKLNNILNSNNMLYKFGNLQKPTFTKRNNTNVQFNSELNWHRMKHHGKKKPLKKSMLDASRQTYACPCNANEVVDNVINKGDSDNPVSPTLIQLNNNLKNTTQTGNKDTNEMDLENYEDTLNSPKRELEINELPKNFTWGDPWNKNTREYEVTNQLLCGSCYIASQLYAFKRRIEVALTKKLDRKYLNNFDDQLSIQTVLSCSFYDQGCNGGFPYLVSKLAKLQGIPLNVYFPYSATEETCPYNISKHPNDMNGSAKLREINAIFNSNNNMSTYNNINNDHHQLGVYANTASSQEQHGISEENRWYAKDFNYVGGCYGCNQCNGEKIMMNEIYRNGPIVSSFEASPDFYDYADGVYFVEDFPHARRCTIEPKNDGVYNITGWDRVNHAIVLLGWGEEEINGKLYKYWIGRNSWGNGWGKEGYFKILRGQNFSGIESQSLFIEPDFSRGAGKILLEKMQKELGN
row,Compound,% Inhibition @ 10 uM
1,O=C(Nc1nc2ccccc2[nH]1)c1cccc(Cl)c1,-7.33%
2,O=C(COc1ccc(Cl)cc1)N(Cc1ccc(Cl)cc1)Cc1ccco1,-4.02%
3,Cc1ccc(C23CC4CC(CC(C(=O)N(C)C)(C4)C2)C3)cc1,-4.27%
4,CCO/C(O)=C1\C(C)=NC(=S)NC1c1ccsc1 (stereo not drawn),-4.51%
5,O=C(NCCC(c1ccccc1)c1ccccc1)c1ccc2c(c1)OCO2,2.93%
6,CCOc1cc(C(=O)Nc2ccc(OC)cc2)ccc1OCc1ccccc1,2.23%
7,O=C(Nc1noc2ccccc12)c1cc(Br)ccc1Cl,0.362%
8,CN(CC(=O)O)S(=O)(=O)c1cccc2nsnc12,-5.76%
9,Cc1nc(NC2=NCN(Cc3ccco3)CN2)nc2ccccc12,-3.5%
10,O=C(c1ccc(-c2ccccc2)s1)N1CCOCC1,-2.17%
11,CNS(=O)(=O)c1cnccc1N1CCN(C(C)C)CC1,-7.56%
12,O=C1N=C(N2CCOCC2)S/C1=C/c1ccc(F)cc1,6.29%
13,Cc1ccc2[nH]c3c(c2c1)CCCCC3C#N (stereo not drawn),-3.9%
14,O=C(CN1C(=O)c2ccccc2S1(=O)=O)NC1CCCC1,2.22%
15,COc1ccc(CN2C(=O)c3cccnc3C2=O)cc1S(=O)(=O)NCc1ccccc1Cl,1.03%
16,CN(CCCNC(=O)c1nn(C)c2c1CS(=O)(=O)c1ccccc1-2)Cc1ccccc1,-1.38%
17,Nc1nc(-c2ccccc2)sc1-c1ccccc1,-1.66%
18,COc1ccc(-c2c(C)s/c(=N\C(=O)c3cccnc3)n2C)cc1,3.49%
19,Cc1cc(C)cc(NCc2ccco2)c1,-5.59%
20,CCOC(=O)N1CCN(C(=O)c2sc3nc(C)cc(C)c3c2-n2cccc2)CC1,3.87%
21,COc1cscc1C(=O)N[C@@H](CC1CCCCC1)C(=O)NCC#N,-0.214%
22,COc1ccc(Cc2nc(S(=O)(=O)c3ccccc3)c(NCc3ccccc3)o2)cc1,0.032%
23,COC(=O)c1cc2oc(C)cc2n1CC(=O)c1ccccc1,1.72%
24,Cc1cc(Cl)ccc1N(CC(=O)Nc1ccc2c(c1)OCO2)S(=O)(=O)c1ccccc1,8.03%
25,CCc1ccc(-n2c(SCC(=O)N3CCOCC3)nc3sc(C)c(C)c3c2=O)cc1,-0.968%
26,CCCCCc1nn2cc(-c3ccccc3OCC)nc2s1,-0.946%

row,Compound,% Inhibition @ 10 uM
1,CCc1ccccc1NC(=O)c1nn2c(C(F)(F)F)cc(-c3ccccc3)nc2c1Br,3.15%
2,CCOC(=O)C1=C(C)N=C(C)/C(=C(/O)OCC)C1/C=C/c1ccccc1OC (stereo not drawn),-1.25%
3,O=C(Cc1ccccc1)N1CCc2ccccc2C1,2.41%
4,CC(=O)c1cccc(NC(=O)c2sc3nc4c(cc3c2N)CCCCCC4)c1,4.23%
5,COc1cc(OC)cc(-c2cc3nc(C)c(CCC(=O)NC4CCCCCC4)c(C)n3n2)c1,-0.465%
6,CC(=O)OC(C#CCN1CCOCC1)c1ccccc1 (stereo not drawn),-5.96%
7,CCOc1ccc(/C=C2\SC(=O)N(CN3CCOCC3)C2=O)c(OCC)c1,3.69%
8,O=C1/C(=C/c2cc(Br)cc(Br)c2O)Sc2ccccc21,9.96%
9,Clc1nc(NCCN2CCOCC2)nc(NC2CCCCC2)n1,7.93%
10,O=C(CCc1nc(-c2ccc(Cl)cc2)no1)NCc1ccco1,3.62%
11,Cc1ccc(N(CC(=O)NC2CC3CCC2C3)S(=O)(=O)c2ccccc2)cc1Cl (stereo not drawn),-6.4%
12,CN(C)CCc1ccccc1Sc1ccccc1,3.05%
13,CCC(=O)c1ccc(OCC(=O)Nc2c(C)cccc2CC)cc1,-9.13%
14,CC(=O)N1N=C(c2ccccc2)CC1c1ccccc1O (stereo not drawn),-0.0938%
15,COc1ccc(/C=c2\sc3nnc(-c4ccccc4Cl)n3c2=O)cc1,3.72%
16,CCOC(=O)c1ccc2nc3c(nc2c1)C(=O)c1ccccc1C3=O,-1.6%
17,O=C(O)C1C2C=CC(C2)C1C(=O)NCc1ccc(Cl)c(Cl)c1 (stereo not drawn),-4.7%
18,CCn1cc(/C=C(\NC(=O)c2ccccc2F)C(=O)NCCCn2ccnc2)c2ccccc21,-5.36%
19,N#C/C(=C/c1ccc(O)cc1)c1nc(O)c2ccccc2n1,-10.4%
20,Cc1occc1C(=O)Nc1nc2ccc(S(C)(=O)=O)cc2s1,2.01%
21,CC1(C)Cc2nc3sc4c(=O)n(CC(N)=O)cnc4c3cc2CO1,-0.884%
22,Cc1nc(C(=O)Nc2cccc(F)c2)c(C(=O)NC(C)C)nc1C,-7.14%
23,COc1ccc2nc3sc(C(=O)NCc4ccc(F)cc4)cc3cc2c1,1.22%
24,COc1cc2c(cc1OC)C(c1ccccc1)N(S(C)(=O)=O)CC2 (stereo not drawn),1.8%
25,CCN(CC)/C(=C/C(=O)c1cccc([N+](=O)[O-])c1)c1ccccc1,-0.239%
